Reference: PMC4336329 (PLoS ONE, 2015)
The whole screen tested about 310,000 compounds, of which about 14,000 (4.5%) showed an effect of 50% or more. Effects have a minus sign here. Some of the results follow.

These compounds were tested against human ether-à-go-go-related gene (hERG) potassium channel (human, UniProt Q12809) (assay: primary screen, population patch clamp on CHO cells stably expressing hERG).
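Further: peak tail current of the secondary pulse compared with the same well before compound.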

Sequence of human ether-à-go-go-related gene (hERG) potassium channel (Q12809 whole entry, looked up): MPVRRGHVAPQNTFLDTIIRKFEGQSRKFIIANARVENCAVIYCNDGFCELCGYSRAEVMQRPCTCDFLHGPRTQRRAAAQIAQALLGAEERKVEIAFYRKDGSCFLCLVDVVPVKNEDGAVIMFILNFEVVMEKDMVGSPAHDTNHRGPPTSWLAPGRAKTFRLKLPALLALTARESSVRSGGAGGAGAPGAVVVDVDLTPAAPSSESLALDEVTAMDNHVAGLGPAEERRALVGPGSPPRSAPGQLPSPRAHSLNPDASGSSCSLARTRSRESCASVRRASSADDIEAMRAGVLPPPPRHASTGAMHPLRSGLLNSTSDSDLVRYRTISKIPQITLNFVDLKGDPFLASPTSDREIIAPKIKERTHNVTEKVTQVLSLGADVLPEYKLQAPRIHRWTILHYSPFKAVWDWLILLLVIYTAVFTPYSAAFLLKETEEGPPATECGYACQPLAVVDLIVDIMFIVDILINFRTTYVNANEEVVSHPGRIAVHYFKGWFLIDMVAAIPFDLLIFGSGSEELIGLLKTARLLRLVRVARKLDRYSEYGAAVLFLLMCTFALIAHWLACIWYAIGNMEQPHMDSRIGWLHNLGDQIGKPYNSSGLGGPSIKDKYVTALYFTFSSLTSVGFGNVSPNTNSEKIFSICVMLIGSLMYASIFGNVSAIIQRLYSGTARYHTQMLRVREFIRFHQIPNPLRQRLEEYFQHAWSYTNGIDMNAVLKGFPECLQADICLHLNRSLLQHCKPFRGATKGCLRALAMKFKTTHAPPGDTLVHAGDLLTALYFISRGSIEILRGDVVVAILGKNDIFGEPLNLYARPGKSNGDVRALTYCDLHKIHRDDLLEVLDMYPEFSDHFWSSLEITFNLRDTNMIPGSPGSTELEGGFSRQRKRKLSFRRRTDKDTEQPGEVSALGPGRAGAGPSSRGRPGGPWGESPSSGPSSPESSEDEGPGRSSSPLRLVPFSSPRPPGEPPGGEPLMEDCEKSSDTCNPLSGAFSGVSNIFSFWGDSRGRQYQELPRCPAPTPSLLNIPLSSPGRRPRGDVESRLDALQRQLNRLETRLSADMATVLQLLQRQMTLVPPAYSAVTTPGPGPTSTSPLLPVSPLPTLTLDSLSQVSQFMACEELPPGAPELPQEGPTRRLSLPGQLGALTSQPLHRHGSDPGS

SMILES | hERG current change (%, negative = inhibition) at 10uM [%]
NC(=O)Cc1ccc2c(c1)[nH]c1ccccc12 | 29.4
COc1ccc(CC(=O)NCc2ccccc2)cc1 | 11.6
Cc1noc(C)c1C(=O)Nc1nnc(CC(C)C)s1 | -1.01
O=C(c1ccccc1F)N(Cc1nc2ccccc2c(=O)[nH]1)C1CCCC1 | 16.8
CC1CCCC(NC(=O)Cn2cc([N+](=O)[O-])ccc2=O)C1C (centres unmarked) | 2.74
CCOC(=O)N1CCC(N2C(=O)c3ccccc3C2Nc2ccc(S(=O)(=O)N(CC)CC)cc2)CC1 (centres unmarked) | -62.6
Cc1ccc(Nc2c3c(nc4ncnn24)CCC3)cc1 | -6.68
COC(=O)c1[nH]c2ccc(C)cc2c1NC(=O)CN1CCC(C)CC1 | -8.97
CCCN1Cc2cccc(C(N)=O)c2C1=O | 8.93
O=C(NC1CCCCCC1)C1CCN(C(=O)Cc2ccccc2)CC1 | 8.14
CC(C)N1C(=O)/C(=C\c2nc3ccccc3c(=O)n2-c2ccccc2)c2ccccc21 | 4.14
C/C(N)=C(/C#N)C(=O)CSc1nnc(Nc2cccc(C)c2)s1 | 6.59
C=C(C)CNC(=S)N/N=C/c1ccc(NC(C)=O)cc1 | 0.277
CN(C)N1C(N)=C(C#N)C(c2ccccc2Cl)C2=C1CCCC2=O (centres unmarked) | 8.99
CCN(CC)CCn1c(NC(=O)c2ccccc2O)nc2ccccc21 | -68
Cc1ccccc1C(=O)Nc1ccc(-c2nc3ccc(C(=O)c4ccccc4)cc3[nH]2)cc1 | 20.3
COc1cccc(C2=NOC(C(=O)NCc3cccnc3)C2)c1 (centres unmarked) | 35.6
O=C(CCSc1ccccc1)NC1CCCC1 | -0.125
CC(C)Nc1nc(NC(C)C)nc(SCCOC(=O)Nc2ccc(Cl)cc2Cl)n1 | 7.75
COc1ccc(OCC(O)CNC(=O)Nc2ccc(F)cc2)cc1 (centres unmarked) | -15.5
COCCN1Cc2cccc(C(=O)NCc3cccs3)c2C1=O | -7.13
COc1ccc(OCCCCOc2ccccc2Cl)cc1 | 15.7
CC(=O)c1ccccc1NC(=O)COC(=O)/C(=C/c1ccccc1)n1nnnc1C | 7.2

SMILES | hERG current change (%, negative = inhibition) at 10uM [%]
COc1ccc2cc(CCNS(=O)(=O)c3ccc(NC(C)=O)cc3)c(=O)[nH]c2c1 | -9.19
O=C(O)c1[nH]c2ccccc2c1-c1ccccc1 | -2.08
O=S(=O)(NCc1ccc(F)cc1)c1ccc(-n2cnnn2)cc1 | -1.08
CC(Nc1oc(-c2ccco2)nc1C#N)c1ccccc1 (centres unmarked) | 0.139
CCCC(CCC)C(=O)Nc1ccc2c(c1)N(C(=O)CN1CCN(C)CC1)c1ccccc1CC2 | 10.8
COC(=O)c1ccccc1OS(=O)(=O)N(C)C | 12.2
COc1cc(-c2cc(OC)c3c(C)oc(C)c3c(=O)c2)ccc1O | -3.77
O=C(CCN1CCN(CC(=O)Nc2ccccc2F)CC1)Nc1ccccc1F | -65.4
CCc1nc2nc(C)c(NS(=O)(=O)c3ccc(C4CCCCC4)cc3)c(=O)n2[nH]1 | 17.5
CCSc1nnc(N(CCC(=O)O)CCC(=O)O)s1 | 1.68
CCOC(=O)c1c(C)[nH]c(C)c1C(=O)CSc1nc2ccccc2[nH]1 | 8.29
Cc1[nH]nc2c1C1(CCOC1C)C(C#N)=C(N)O2 (centres unmarked) | 6.48
c1ccc(-c2n[nH]c3ccccc23)cc1 | 8.84
COc1ccc(OC)c(NC(=O)C(=O)c2cn(CC(=O)N3CCCC3)c3ccccc23)c1 | 16.3
Cc1cc(NC(=O)CN2CCN(c3ccc(O)cc3)CC2)no1 | -4.58
O=C(NCC(c1ccco1)N1CCCC1)c1ccc(S(=O)(=O)Nc2ccccc2Cl)cc1 (centres unmarked) | -11.6
CCOc1cc(-c2cc(-c3ccc(OC)cc3)nc(N)c2C#N)ccc1O | -11.8
CCNC(=O)CSc1nnc(CN2CCCCCC2=O)n1-c1ccccn1 | 21.5
O=C(CN1CCN(CC(=O)Nc2cccc(F)c2)CC1)Nc1ccc(-c2ccccc2)cc1 | -28.6
Cc1ccc(C)c(S(=O)(=O)/N=C2\C=C(NS(=O)(=O)c3ccccc3)C(=O)c3ccccc32)c1 | 7.4
CCOc1ccc(CCNC(=O)C2CCN(S(=O)(=O)N3CCC(C)CC3)CC2)cc1OCC | -4.28
COc1ccc(Br)cc1CSC(=N)N.Cl | -9.13
Cl.O=c1[nH]oc2c1CCNC2 | 15

SMILES | hERG current change (%, negative = inhibition) at 10uM [%]
Cc1c(C)c2c(OCC(=O)NCCCO)cc3c(c2oc1=O)CCC(C)(C)O3 | 2.18
CCCCCc1nc2sc3c(c2c(=O)n1N)CCC3 | 6.53
CC(=O)Nc1nc2ccccc2n1Cc1ccccc1Cl | -2.73
O=C(NNC(=O)c1ccccc1F)c1cccc(Cl)c1 | 11.5
Cc1cc(C)c(C)c(S(=O)(=O)N2CCCN(C)CC2)c1C | 12.7
O=c1cc(Cl)c(-c2ccccc2)n[nH]1 | 11
Cc1ccc(C)c(NC(=O)COc2coc(CN3CCc4ccccc43)cc2=O)c1 | 1.1
COc1ccc(S(=O)Cc2ccc(C(=O)NCc3cccc(OC)c3)o2)cc1 (centres unmarked) | 14
OCCN1CCN(c2nc(-c3ccccc3)c3cc(Cl)ccc3n2)CC1 | -26.2
COn1c2c(c3c4nonc4ccc31)CCCC2 | -10.4
NC(=O)Nc1ccc(C(=O)N2CCN(S(=O)(=O)Cc3ccccc3)CC2)cc1 | -6.86
Cn1c2c(c(=O)n(C)c1=O)C(c1ccc(Cl)cc1)C(C#N)=C(N)O2 (centres unmarked) | -18.7
CS(=O)(=O)N(Cc1ccccc1)c1ccc(C(=O)Nc2cccnc2)cc1 | -5.96
COc1ccc(Nc2cc(=O)n(C3CCCCC3)c(=O)[nH]2)c(OC)c1 | 2.89
COC(=O)c1ccc(NC(=O)COc2coc(CN3CCc4ccccc43)cc2=O)cc1 | -1.38
CCN=c1scc(-c2ccc(F)cc2)n1/N=C/c1ccccn1 | -0.313
CCCCc1nc(Cl)c(C#N)c2c1CCCC2 | -14.7
N#Cc1c(-c2ccco2)cc(-c2ccccn2)nc1N | 6.62
O=C(COc1cc2oc(=O)c3c(c2cc1Cl)CCC3)NCc1ccncc1 | 1.53
Cn1c(SCC(=O)NC(C)(C)C)nnc1-c1cccc(NC(=O)c2ccccc2F)c1 | -4.75
CCCC[N+]12CCC(CC1)C(=C(c1ccccc1)c1ccccc1)C2.[Br-] | -72.4
CCN(C(=O)COC(=O)CSc1ccc(C(N)=O)cc1[N+](=O)[O-])C1CCCCC1 | 5.86
CCOC(=O)CNC(=O)CSc1nnc(-c2ccccc2)c(-c2ccccc2)n1 | 5.02

SMILES | hERG current change (%, negative = inhibition) at 10uM [%]
COc1ccc(CNC(=O)CN2C(=O)CSc3ccc(S(=O)(=O)N4CCOCC4)cc32)c(OC)c1 | -31.7
O=C(Nc1ccnn1C1CCN(CCCC2CCCC2)CC1)c1ccccc1Cl | -86.4
CSc1ccc(NC(=O)NCc2cccnc2)cc1 | -9.64
Cn1c(C(=O)N2CCc3ccccc3C2)cc2oc3ccccc3c21 | 18.5
COc1ccc(NC(=O)CSCC(=O)N=c2sccn2C)cc1 | 11
CCC(/C=N/NC(=O)C(N)=O)CC | 24.5
CC(C)CNC(=O)c1cc(-c2ccc(Cl)c(Cl)c2)on1 | 3.96
CSCC(O)Cn1ncc2ccccc2c1=O (centres unmarked) | 2.43
CCOc1ccccc1NC(=O)CN1C(=O)COc2ccc(S(=O)(=O)N3CCOCC3)cc21 | -1.44
COc1ccccc1-n1cnc2cc(NCc3ccccc3O)ccc21 | 7.77
CCOC(=O)c1c(N/N=C/c2ccncc2)n[nH]c1C | -10.9
CC(C)c1ccc(Nc2nnc(SCC(=O)Nc3ncc(S(=O)(=O)c4ccc([N+](=O)[O-])cc4)s3)s2)cc1 | 13.8
CCCCN(C(=O)c1ccc2c(c1)OCO2)c1ccccc1 | -6.27
O=C(CSCCO)N1CCc2ccccc21 | -25.8
Cc1cc(NCCCN(C)C)n2nc(-c3cccs3)cc2n1 | -23.6
COc1cc(C(C)=O)ccc1OCC(O)CN1CCN(c2ccccc2)CC1 (centres unmarked) | -31.5
CCn1c(CC(=O)Nc2ccc(C)cc2)nnc1SCC(=O)N1CCN(c2ccccc2)CC1 | -20.8
OCCC1CN(Cc2ccc(-n3cccn3)cc2)CCN1Cc1ccccc1 (centres unmarked) | -59.8
O=C(COC(=O)COc1ccc(Cl)cc1)NC1CCS(=O)(=O)C1 (centres unmarked) | 4.54
COc1ccc(N2CCN(S(=O)(=O)c3ccc4c(c3)N(C(C)=O)CCO4)CC2)cc1 | -18.4
COc1ccc(O)c(/C=N/NS(=O)(=O)c2ccc(C)cc2)c1 | 11.9
Cc1ccc2c(c1)N(C(=O)CCC(=O)NCCCN1CCOCC1)CCO2 | 5.17
COc1ccc(Cc2nc3ccc(C(=O)NC(C)c4cn(C)nc4C)cc3o2)cc1 (centres unmarked) | 6.22
